Some of these densities may be calculated back from excess volumes.
Experiment: xn = mol fraction of the nth substance listed
Settings: 100 kPa

C[P+](c1ccccc1)(c1ccccc1)c1ccccc1.[Br-] + OCCO
mass density [kg/m3]
Settings	293.15 K	298.15 K	303.15 K	308.15 K	313.15 K	318.15 K	323.15 K
x1 = 0.1	1185	–	1178	1174	–	1167	1163
x1 = 0.13	1196	1193	1189	1186	1182	1178	1174
x1 = 0.17	1212	1208	1204	1201	1197	1194	1190
x1 = 0.2	1223	1219	1215	1212	1208	1205	1201
x1 = 0.25	1236	1232	1228	1225	1221	–	1214
x1 = 0.33	1247	1244	–	1237	–	1230	1226

Source: a compilation of properties of binary mixtures (doi:10.1007/s10953-022-01241-4)
